Data taken from the supplement of paper PMC8728848.
This is one part of the list.

Tests used:
Experiment in all cases: glycan array binding signal (z-score within array); higher = stronger binding
Conditions in all cases: glycan notation: IUPAC condensed, linker removed
[1] = target: Neu5Ac(a2-3)Gal(b1-4)GlcNAc(b1-6)[Neu5Ac(a2-3)Gal(b1-3)]GalNAc
In short: (§1)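 The Consortium for Functional Glycomics database supplied 3228 glycan arrays, of which those lacking an available protein sequence were dropped. The binding signal, a within-array Z-score, was averaged across arrays of the same protein sequence and across linkers. Negative scores can be read as non-binding.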

[2] = target: Neu5Ac(a2-3)Gal(b1-4)GlcNAc6S
In short: as §1

[3] = target: Neu5Ac(a2-3)Gal(b1-4)[Fuc(a1-3)]GlcNAc
In short: as §1

[4] = target: Neu5Ac(a2-3)Gal(b1-4)[Fuc(a1-3)]GlcNAc(b1-2)Man
In short: as §1

[5] = target: Neu5Ac(a2-3)Gal(b1-4)[Fuc(a1-3)]GlcNAc(b1-3)Gal
In short: as §1

[6] = target: Neu5Ac(a2-3)Gal(b1-4)[Fuc(a1-3)]GlcNAc(b1-3)Gal(b1-4)GlcNAc
In short: as §1

[7] = target: Neu5Ac(a2-3)Gal(b1-4)[Fuc(a1-3)]GlcNAc(b1-3)Gal(b1-4)[Fuc(a1-3)]GlcNAc(b1-3)Gal(b1-4)[Fuc(a1-3)]GlcNAc
In short: as §1

[8] = target: Neu5Ac(a2-3)Gal(b1-4)[Fuc(a1-3)]GlcNAc(b1-3)GalNAc
In short: as §1

[9] = target: Neu5Ac(a2-3)Gal(b1-4)[Fuc(a1-3)]GlcNAc(b1-6)[Gal(b1-3)]GalNAc
In short: as §1

[10] = target: Neu5Ac(a2-3)Gal(b1-4)[Fuc(a1-3)]GlcNAc(b1-6)[Neu5Ac(a2-3)Gal(b1-3)]GalNAc
In short: as §1

[11] = target: Neu5Ac(a2-3)Gal(b1-4)[Fuc(a1-3)]GlcNAc6S
In short: as §1

[12] = target: Neu5Ac(a2-3)Gal6S(b1-4)GlcNAc
In short: as §1

[13] = target: Neu5Ac(a2-3)Gal6S(b1-4)[Fuc(a1-3)]GlcNAc
In short: as §1

Neu5Ac(a2-3)GalNAc = target: Neu5Ac(a2-3)GalNAc
In short: as §1

[14] = target: Neu5Ac(a2-3)GalNAc(b1-4)GlcNAc
In short: as §1

[15] = target: Neu5Ac(a2-3)[GalNAc(b1-4)]Gal(b1-4)Glc
In short: as §1

[16] = target: Neu5Ac(a2-3)[GalNAc(b1-4)]Gal(b1-4)GlcNAc
In short: as §1

[17] = target: Neu5Ac(a2-3)[GalNAc(b1-4)]Gal(b1-4)GlcNAc(b1-3)GalNAc
In short: as §1

[18] = target: Neu5Ac(a2-3)[Neu5Ac(a2-6)]GalNAc
In short: as §1

Neu5Ac(a2-6)Gal = target: Neu5Ac(a2-6)Gal
In short: as §1

[19] = target: Neu5Ac(a2-6)Gal(b1-3)GlcNAc(b1-3)[Gal(b1-4)GlcNAc(b1-6)]Gal(b1-4)Glc
In short: as §1

Neu5Ac(a2-6)Gal(b1-4)Glc = target: Neu5Ac(a2-6)Gal(b1-4)Glc
In short: as §1

[20] = target: Neu5Ac(a2-6)Gal(b1-4)GlcNAc
In short: as §1

[21] = target: Neu5Ac(a2-6)Gal(b1-4)GlcNAc(b1-2)Man
In short: as §1

[22] = target: Neu5Ac(a2-6)Gal(b1-4)GlcNAc(b1-2)Man(a1-3)Man(b1-4)GlcNAc(b1-4)GlcNAc
In short: as §1

[23] = target: Neu5Ac(a2-6)Gal(b1-4)GlcNAc(b1-2)Man(a1-3)[Gal(b1-4)GlcNAc(b1-2)Man(a1-6)]Man(b1-4)GlcNAc(b1-4)GlcNAc
In short: as §1

[24] = target: Neu5Ac(a2-6)Gal(b1-4)GlcNAc(b1-2)Man(a1-3)[GlcNAc(b1-2)Man(a1-6)]Man(b1-4)GlcNAc(b1-4)GlcNAc
In short: as §1

[25] = target: Neu5Ac(a2-6)Gal(b1-4)GlcNAc(b1-2)Man(a1-3)[GlcNAc(b1-4)][Neu5Ac(a2-6)Gal(b1-4)GlcNAc(b1-2)Man(a1-6)]Man(b1-4)GlcNAc(b1-4)GlcNAc
In short: as §1

[26] = target: Neu5Ac(a2-6)Gal(b1-4)GlcNAc(b1-2)Man(a1-3)[Man(a1-6)]Man(b1-4)GlcNAc(b1-4)GlcNAc
In short: as §1

[27] = target: Neu5Ac(a2-6)Gal(b1-4)GlcNAc(b1-2)Man(a1-3)[Neu5Ac(a2-3)Gal(b1-4)GlcNAc(b1-2)Man(a1-6)]Man(b1-4)GlcNAc(b1-4)GlcNAc
In short: as §1

[28] = target: Neu5Ac(a2-6)Gal(b1-4)GlcNAc(b1-2)Man(a1-3)[Neu5Ac(a2-6)Gal(b1-4)GlcNAc(b1-2)Man(a1-6)]Man(b1-4)GlcNAc(b1-4)GlcNAc
In short: as §1

[29] = target: Neu5Ac(a2-6)Gal(b1-4)GlcNAc(b1-2)Man(a1-3)[Neu5Ac(a2-6)Gal(b1-4)GlcNAc(b1-2)Man(a1-6)]Man(b1-4)GlcNAc(b1-4)[Fuc(a1-6)]GlcNAc
In short: as §1

[30] = target: Neu5Ac(a2-6)Gal(b1-4)GlcNAc(b1-2)Man(a1-6)Man(b1-4)GlcNAc(b1-4)GlcNAc
In short: as §1

[31] = target: Neu5Ac(a2-6)Gal(b1-4)GlcNAc(b1-2)Man(a1-6)[Gal(b1-4)GlcNAc(b1-2)Man(a1-3)]Man(b1-4)GlcNAc(b1-4)GlcNAc
In short: as §1

[32] = target: Neu5Ac(a2-6)Gal(b1-4)GlcNAc(b1-2)Man(a1-6)[GlcNAc(b1-2)Man(a1-3)]Man(b1-4)GlcNAc(b1-4)GlcNAc
In short: as §1

[33] = target: Neu5Ac(a2-6)Gal(b1-4)GlcNAc(b1-2)Man(a1-6)[Man(a1-3)]Man(b1-4)GlcNAc(b1-4)GlcNAc
In short: as §1

[34] = target: Neu5Ac(a2-6)Gal(b1-4)GlcNAc(b1-2)[Neu5Ac(a2-6)Gal(b1-4)GlcNAc(b1-4)]Man(a1-3)[GlcNAc(b1-4)][Neu5Ac(a2-6)Gal(b1-4)GlcNAc(b1-2)[Neu5Ac(a2-6)Gal(b1-4)GlcNAc(b1-6)]Man(a1-6)]Man(b1-4)GlcNAc(b1-4)GlcNAc
In short: as §1

B1: CSA (Cytisus scoparius), P29257 (protein)
chain: SEELSFSFTKFKTDQKNLILQRDALITPTGKLQLTTVENGKPAAYSLGRALYSTPIHIWDKSTGDEASFATFFSFVISDAPNPSTAATDGLAFFLAPADTQPQSAGGYLGLFEKDSSYNSSNQIVAVEFDTYYNSAWDPQTNPHIGIDVNTIKSKKVSSWGFKNGNVATVLITYQPSSKSLVASLVYPSGQTSDKTSYIISANVDLKATVPEWVRIGFSATTGQTDNYIETHDILSWSFKSKLPATKN
glycan array binding signal (z-score) [1]: -0.243 | glycan array binding signal (z-score) [2]: -0.185 | glycan array binding signal (z-score) [3]: -0.187 | glycan array binding signal (z-score) [4]: -0.208 | glycan array binding signal (z-score) [5]: -0.201 | glycan array binding signal (z-score) [6]: -0.149 | glycan array binding signal (z-score) [7]: -0.162 | glycan array binding signal (z-score) [8]: -0.172 | glycan array binding signal (z-score) [9]: -0.146 | glycan array binding signal (z-score) [10]: -0.172 | glycan array binding signal (z-score) [11]: -0.185 | glycan array binding signal (z-score) [12]: -0.174 | glycan array binding signal (z-score) [13]: -0.231 | glycan array binding signal (z-score) (Neu5Ac(a2-3)GalNAc): -0.205 | glycan array binding signal (z-score) [14]: -0.204 | glycan array binding signal (z-score) [15]: 0.208 | glycan array binding signal (z-score) [16]: 0.338 | glycan array binding signal (z-score) [17]: 0.263 | glycan array binding signal (z-score) [18]: -0.224 | glycan array binding signal (z-score) (Neu5Ac(a2-6)Gal): -0.102 | glycan array binding signal (z-score) [19]: -0.199 | glycan array binding signal (z-score) (Neu5Ac(a2-6)Gal(b1-4)Glc): -0.154 | glycan array binding signal (z-score) [20]: -0.184 | glycan array binding signal (z-score) [21]: -0.22 | glycan array binding signal (z-score) [22]: -0.213 | glycan array binding signal (z-score) [23]: -0.204 | glycan array binding signal (z-score) [24]: -0.22 | glycan array binding signal (z-score) [25]: -0.228 | glycan array binding signal (z-score) [26]: -0.185 | glycan array binding signal (z-score) [27]: -0.205 | glycan array binding signal (z-score) [28]: -0.171 | glycan array binding signal (z-score) [29]: 0.079 | glycan array binding signal (z-score) [30]: -0.128 | glycan array binding signal (z-score) [31]: -0.157 | glycan array binding signal (z-score) [32]: -0.138 | glycan array binding signal (z-score) [33]: -0.236 | glycan array binding signal (z-score) [34]: -0.171
